Source: patent USRE49495 (Affibody, dated 2023)

Key:
[1] = target: T1, human CAIX (R&D Systems, cat. no. 2188-CA) (human, UniProt Q16790 59-414); assay: SPR Biacore 2000, CAIX on CM5 chip, 1:1 Langmuir; KD after 2 weeks at 37 C against KD before
[2] = target: T1, human CAIX (R&D Systems, cat. no. …); assay: SPR Biacore 2000, CAIX on CM5 chip, 1:1 Langmuir; sample (2w) after 2 weeks at 37 C
[3] = target: T1, human CAIX (R&D Systems, cat. no. …); assay: SPR Biacore 2000, CAIX on CM5 chip, 1:1 Langmuir; sample (2w) after 2 weeks at 37 C; reference Z09782 (2w)
[4] = target: T1, human CAIX (R&D Systems, cat. no. …); assay: SPR Biacore 2000, CAIX on CM5 chip, 1:1 Langmuir; sample (0) before stability test
[5] = target: T1, human CAIX (R&D Systems, cat. no. …); assay: SPR Biacore 2000, CAIX on CM5 chip, 1:1 Langmuir; sample (0) before stability test; reference Z09782 (0)
[6] = target: T2, human C5 (Quidel, cat. no. A403) (human, UniProt P01031 19-673; P01031 678-1676, limits assumed); assay: BLI (ForteBio), compound captured on HSA sensor, human C5 0.79-25 nM, 1:1 model
T2 construct: Bought protein; also called hC5; human complement component 5

[7] = target: T3, human PDGF-Rβ (R&D Systems, cat. no. 385-PR-100/CF) (human, UniProt P09619 33-530, limits assumed); assay: SPR Biacore 2000, PDGF-Rβ on CM5 chip, 1:1 binding with mass transfer; sample (2w) after 2 weeks at 37 C
T3 construct: Bought; also called platelet-derived growth factor receptor beta
T3 sequence (P09619 33-530 limits assumed): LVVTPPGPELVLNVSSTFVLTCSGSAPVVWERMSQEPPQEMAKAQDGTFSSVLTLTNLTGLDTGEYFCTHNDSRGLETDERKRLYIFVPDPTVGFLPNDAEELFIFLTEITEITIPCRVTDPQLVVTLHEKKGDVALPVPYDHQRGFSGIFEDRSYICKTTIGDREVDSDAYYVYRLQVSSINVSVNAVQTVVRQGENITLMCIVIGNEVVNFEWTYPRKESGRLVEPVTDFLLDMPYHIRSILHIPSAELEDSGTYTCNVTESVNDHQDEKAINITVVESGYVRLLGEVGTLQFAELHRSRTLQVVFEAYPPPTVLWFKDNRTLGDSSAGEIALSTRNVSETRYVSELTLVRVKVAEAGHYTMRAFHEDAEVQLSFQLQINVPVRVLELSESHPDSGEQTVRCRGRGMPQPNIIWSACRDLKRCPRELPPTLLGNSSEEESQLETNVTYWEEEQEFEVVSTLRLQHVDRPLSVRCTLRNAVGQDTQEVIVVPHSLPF

[8] = target: T3, human PDGF-Rβ (R&D Systems, cat. no. …); assay: SPR Biacore 2000, PDGF-Rβ on CM5 chip, 1:1 binding with mass transfer; sample (2w) after 2 weeks at 37 C; reference Z15805 (2w)
[9] = target: T3, human PDGF-Rβ (R&D Systems, cat. no. …); assay: SPR Biacore 2000, PDGF-Rβ on CM5 chip, 1:1 binding with mass transfer; KD after 2 weeks at 37 C against KD before
[10] = target: T3, human PDGF-Rβ (R&D Systems, cat. no. …); assay: SPR Biacore 2000, PDGF-Rβ on CM5 chip, 1:1 binding with mass transfer; sample (0) before stability test
[11] = target: T3, human PDGF-Rβ (R&D Systems, cat. no. …); assay: SPR Biacore 2000, PDGF-Rβ on CM5 chip, 1:1 binding with mass transfer; sample (0) before stability test; reference Z15805 (0)

B1: Z09782 (designed binder)
chain: MGSSHHHHHHLQAEAKYAKENLFAGWEISDLPNLTDYQRNAFIYKLWDDPSQSSELLSEAKKLNDSQAPK
KD(2w)/KD(0) [1]: 1.41 ratio
Kd [2]: 9.9 nM
koff [2]: 0.00138 s⁻¹
kon [2]: 140000 M⁻¹ s⁻¹
KDInv/KDOrig [3]: 1 ratio
Kd [4]: 7 nM
koff [4]: 0.00146 s⁻¹
kon [4]: 208000 M⁻¹ s⁻¹
KDInv/KDOrig [5]: 1 ratio

B2: Z17351 (designed binder)
chain: MGSSHHHHHHLQAEAKYAKENLFAGWEISDLPNLTDYQRNAFIYKLWDDPSQSSELLSEAKKLSESQAPK
notes: also called Z017351
KD(2w)/KD(0) [1]: 0.86 ratio
Kd [2]: 15 nM
koff [2]: 0.00286 s⁻¹
kon [2]: 191000 M⁻¹ s⁻¹
KDInv/KDOrig [3]: 1.52 ratio
Kd [4]: 18 nM
koff [4]: 0.00263 s⁻¹
kon [4]: 151000 M⁻¹ s⁻¹
KDInv/KDOrig [5]: 2.49 ratio

B3: Z17355 (designed binder)
chain: MGSSHHHHHHLQAEAKYAKENLFAGWEISDLPNLTDYQRNAFIYKLWDDPSQSSELLSEAKKLNESQAPK
KD(2w)/KD(0) [1]: 1.35 ratio
Kd [2]: 11 nM
koff [2]: 0.00123 s⁻¹
kon [2]: 116000 M⁻¹ s⁻¹
KDInv/KDOrig [3]: 1.07 ratio
Kd [4]: 7.9 nM
koff [4]: 0.00123 s⁻¹
kon [4]: 157000 M⁻¹ s⁻¹
KDInv/KDOrig [5]: 1.12 ratio

B4: Z17359 (designed binder)
chain: MGSSHHHHHHLQAEAKYAKENLFAGWEISDLPNLTDYQRNAFIYKLWDDPSQSSELLSEAKKLSDSQAPK
KD(2w)/KD(0) [1]: 1.02 ratio
Kd [2]: 13 nM
koff [2]: 0.00233 s⁻¹
kon [2]: 178000 M⁻¹ s⁻¹
KDInv/KDOrig [3]: 1.32 ratio
Kd [4]: 13 nM
koff [4]: 0.00215 s⁻¹
kon [4]: 168000 M⁻¹ s⁻¹
KDInv/KDOrig [5]: 1.82 ratio

B5: PSI0242 (designed binder)
chain: AEAKYAKEVLEAWDEIDRLPNLTIEQWLAFINKLDDDPSQSSELLSEAKKLNDSQAPKVDGSLAEAKEAANAELDSYGVSDFYKRLIDKAKTVEGVEALKDAILAALP
Rel. KD [6]: 1 ratio to PSI0242

B6: PSI0334 (designed binder)
chain: AEAKYAKEVLEAWDEIDRLPNLTIEQWLAFINKLDDDPSQSSELLSEAKKLSESQAPKVDGSLAEAKEAANAELDSYGVSDFYKRLIDKAKTVEGVEALKDAILAALP
notes: positions 52-53 changed from ND to SE against PSI0242
Rel. KD [6]: 1.1 ratio to PSI0242

B7: PSI0378 (designed binder)
chain: AEAKYAKEVLEAWDEIDRLPNLTIEQWLAFINKLDDDPSQSSELLSEAKKLSESQAPKVEGSLAEAKEAANAELDSYGVSDFYKRLIDKAKTVEGVEALKDAILAALP
notes: as for B6
Rel. KD [6]: 1.3 ratio to PSI0242

B8: PSI0381 (designed binder)
chain: AEAKYAKEVLEAWDEIDRLPNLTIEQWLAFINKLDDDPSQSSELLSEAKKLESSQAPKVEGSLAEAKEAANAELDSYGVSDFYKRLIDKAKTVEGVEALKDAILAALP
notes: positions 52-53 changed from ND to ES against PSI0242
Rel. KD [6]: 23 ratio to PSI0242

B9: Z17343 (designed binder)
chain: MGSSHHHHHHLQAEAKYAKELIEAAAEIDALPNLTRRQWNAFIKKLVDDPSQSSELLSEAKKLSESQAPK
notes: also called Z017343
Kd [7]: 0.23 nM
koff [7]: 0.00171 s⁻¹
kon [7]: 6.45e+06 M⁻¹ s⁻¹
KDInv/KDOrig [8]: 0.93 ratio
KD(2w)/KD(0) [9]: 0.72 ratio
Kd [10]: 0.37 nM
koff [10]: 0.00177 s⁻¹
kon [10]: 4.8e+06 M⁻¹ s⁻¹
KDInv/KDOrig [11]: 1.9 ratio

B10: Z15805 (designed binder)
chain: MGSSHHHHHHLQAEAKYAKELIEAAAEIDALPNLTRRQWNAFIKKLVDDPSQSSELLSEAKKLNDSQAPK
Kd [7]: 0.29 nM
koff [7]: 0.00166 s⁻¹
kon [7]: 5.81e+06 M⁻¹ s⁻¹
KDInv/KDOrig [8]: 1 ratio
KD(2w)/KD(0) [9]: 1.47 ratio
Kd [10]: 0.19 nM
koff [10]: 0.00139 s⁻¹
kon [10]: 7.15e+06 M⁻¹ s⁻¹
KDInv/KDOrig [11]: 1 ratio
